# Laboratory results from PubChem BioAssay AID1468 (National Center for Advancing Translational Sciences (NCATS), 2008).
# The whole screen tested about 280,000 compounds, of which about 1,100 (0.39%) were called active. Inconclusive results, whose numbers are uncertain, are shown with a selection of clear calls. Calls follow the shape of the dose curve; as a rule, active = well fitted inhibition curve with a large enough effect; inconclusive = small, poorly fitted or top-dose-only effect, or effect the other way; inactive = flat fitted curve, though single readings scatter. Potencies of inconclusive entries are left out as doubtful fits.
# Biological target: Microtubule-associated protein tau (Homo sapiens) (UniProt P10636)
# Sequence of UniProt P10636 (P10636 whole entry, looked up): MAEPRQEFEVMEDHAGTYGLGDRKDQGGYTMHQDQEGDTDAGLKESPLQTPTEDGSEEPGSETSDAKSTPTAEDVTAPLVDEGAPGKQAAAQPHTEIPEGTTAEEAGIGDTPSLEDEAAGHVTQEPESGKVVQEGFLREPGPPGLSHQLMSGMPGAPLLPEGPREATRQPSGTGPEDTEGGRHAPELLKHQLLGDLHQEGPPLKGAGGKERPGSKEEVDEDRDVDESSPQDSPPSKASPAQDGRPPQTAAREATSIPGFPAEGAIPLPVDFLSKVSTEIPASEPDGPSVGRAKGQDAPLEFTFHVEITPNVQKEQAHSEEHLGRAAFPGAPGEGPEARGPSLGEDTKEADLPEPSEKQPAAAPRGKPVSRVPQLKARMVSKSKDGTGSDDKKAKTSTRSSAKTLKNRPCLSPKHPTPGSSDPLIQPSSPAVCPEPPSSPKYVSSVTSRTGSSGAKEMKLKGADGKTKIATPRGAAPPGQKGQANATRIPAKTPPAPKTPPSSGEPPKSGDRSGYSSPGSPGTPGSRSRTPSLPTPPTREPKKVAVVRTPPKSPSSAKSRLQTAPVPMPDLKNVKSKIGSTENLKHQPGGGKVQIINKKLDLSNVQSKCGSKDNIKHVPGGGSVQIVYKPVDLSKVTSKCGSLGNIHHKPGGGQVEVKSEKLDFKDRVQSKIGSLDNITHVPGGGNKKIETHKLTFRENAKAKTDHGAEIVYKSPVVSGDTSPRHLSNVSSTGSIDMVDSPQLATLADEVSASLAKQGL
# Assay: qHTS for Inhibitors of Tau Fibril Formation, Fluorescence Polarization; also: nearly all actives have a fitted effect of over 55% in size
# Conditions: K18 P301L tau heparin fibrillization, Alexa594 FP, 6 h; series mostly up to 57.7 µM; activity, negative = inhibition: at the top concentration
# Outline: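 Compound effects on tau fibrillization are measured by Alexa 594 fluorescence polarization (ex 555, em 632 nm). K18 P301L tau is used at 15 uM with 0.24 uM labeled tracer, and 20 uM heparin induces aggregation over 6 hr at 37 C.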
# % is scaled to controls: 0 for no effect and ±100 for the full control effect; potency is read from the fitted curve at half-maximal effect; tags tell the direction and shape of the fitted curve.
SMILES,"activity, negative = inhibition",Potency
COc1ccc(CN2CCN(C(=O)C3CCN(S(=O)(=O)c4cccs4)CC3)CC2)c(OC)c1OC,inactive: -0.14%,
Cc1ccc(NC(=O)c2cccs2)cc1S(=O)(=O)Nc1cccc(Cl)c1,,"inconclusive [inhibitor, single point]"
Cc1ccc(C)c(NS(=O)(=O)c2ccc3c(c2)Cc2cc(S(=O)(=O)Nc4cc(C)ccc4C)ccc2-3)c1,,"inconclusive [inhibitor, single point]"
Cc1nn(Cc2ccccc2)c(Cl)c1C(=O)OCC(=O)NC(=O)NC12CC3CC(CC(C3)C1)C2,inactive: 4.17%,
CCOc1ccc(NC(=O)C(=O)N/N=C\c2ccc(CNS(=O)(=O)c3ccccc3)o2)cc1,,"inconclusive [inhibitor, single point]"
Cc1ccc(C(=O)/C=C2/NC(=O)CS2)cc1,inactive: -8.83%,
CCCCOP(=O)(OCCCC)C(O)c1ccc(F)cc1 (stereo not drawn),inactive: 7.51%,
COc1cccc(CNC(=O)CCC2CCCN(C(=O)c3ccc(OC)c(F)c3)C2)c1 (stereo not drawn),inactive: -0.939%,
Cn1c(SCC(=O)N2CCOCC2)nc(O)cc1=O,,"inconclusive [inhibitor, single point]"
COc1ccc(Cl)cc1N(CC(=O)Nc1ccccc1C(=O)NCc1ccco1)S(C)(=O)=O,inactive: 7.75%,
c1ccc(-c2nnc(-c3c[nH]c4ccccc34)nc2-c2ccccc2)cc1,,"inconclusive [inhibitor, partial curve]"
Cc1ccc(NC(=O)CSc2ncnc3ccccc23)cc1S(=O)(=O)N1CCCCCC1,,"inconclusive [inhibitor, partial curve, poor fit]"
O=C(Nc1ccccc1)c1[nH]ncc1[N+](=O)[O-],,"inconclusive [inhibitor, single point]"
CC(Sc1ncc(S(=O)(=O)c2ccc(C(C)C)cc2)c(N)n1)C(=O)Nc1ccccc1 (stereo not drawn),,"inconclusive [inhibitor, partial curve]"
COc1ccc(NC(=O)Cn2c(=O)n(-c3ccc(Cl)cc3)c(=O)c3c(C)c(C(=O)N(C)C)sc32)cc1Cl,inactive: 2.34%,
COc1ccc(-c2cn[nH]c2-c2ccc(OCc3ccc(F)cc3)cc2O)cc1OC,,"inconclusive [inhibitor, single point]"
COC(=O)c1ccc2nc(C)cc(Nc3ccc(O)cc3)c2c1,inactive: 4.74%,
Cc1[nH]c2ccccc2c1C(=O)CN1C(=O)C(=O)N(C2CCCC2)C1=O,,"inconclusive [inhibitor, partial curve]"
COc1ccc(Br)c2c1-c1nc(NC(=O)c3ccccc3SC)sc1C2,inactive: -6.9%,
CC(C)c1ccc(N=c2c([N+](=O)[O-])nn(-c3ccc4c(c3)OCCO4)n2O)cc1,,"inconclusive [activator, partial curve]"
CCOC(=O)c1c(C)nc(C)c(C(=O)OCC)c1-c1ccccc1,,"inconclusive [inhibitor, full curve]"
CCCCCC(=O)NNC(=O)Cc1ccc([N+](=O)[O-])cc1,inactive: -2.49%,
COC(=O)c1ccc2c(=O)n(-c3ccc(OC)cc3)c(=S)[nH]c2c1,inactive: 6.49%,

SMILES,"activity, negative = inhibition",Potency
c1ccc(-c2noc(CN3CCN(c4cnccn4)CC3)n2)cc1,inactive: -6.87%,
COC(=O)CNC(c1ccccc1)c1cc(C)ccc1NC(=O)CNC(=O)OCc1ccccc1 (stereo not drawn),,"inconclusive [activator, single point]"
O=C(CN1C(=O)CC(c2ccco2)Sc2ccccc21)NCC1CCCO1 (stereo not drawn),,"inconclusive [inhibitor, single point]"
CCCCC(=O)Nc1ccc(C(=O)NNC(=O)c2ccc(C)c(Br)c2)cc1,,"inconclusive [inhibitor, single point]"
O=C(c1cccs1)N1CCN(C/C=C/c2ccccc2)CC1,inactive: -0.0786%,
COc1ccccc1NC(=O)CSc1ncc2c(n1)-c1cc(Cl)ccc1N(C)S2(=O)=O,,"inconclusive [inhibitor, partial curve]"
Cc1cc(O)c(C(c2cccc(Cl)c2)N2CCN(c3ccccc3)CC2)c(=O)n1Cc1ccco1 (stereo not drawn),inactive: -3.58%,
CCc1ccc(-n2c(C)nc3cc(C(=O)NCCc4ccccc4)ccc32)cc1,,"inconclusive [activator, single point]"
O=C(NCc1ccccc1)c1ccccc1C(=O)c1ncc[nH]1,inactive: 5.09%,
CCc1cc(C(=O)Cc2cnn(-c3ccccc3)c2)c(O)cc1O,,"inconclusive [inhibitor, partial curve]"
CC(C)N(C(=S)NCc1ccccc1)c1ccccc1,inactive: -6.48%,
CC(C)Cc1nn2c(=O)cc(COC(=O)c3ccccc3NC(=O)c3ccccc3)nc2s1,inactive: 12.3%,
CC(=O)N1c2ccc(N=Cc3cc(Br)cc(Br)c3O)cc2CC1C (stereo not drawn),,"inconclusive [inhibitor, partial curve]"
COC(=O)NC(=S)Nc1ccc(Oc2ccc(Cl)cc2Cl)c(Cl)c1,,"inconclusive [inhibitor, partial curve, poor fit]"
O=C(Nc1nnc(COc2ccc(Cl)cc2)s1)c1ccco1,,"inconclusive [inhibitor, partial curve]"
COC(=O)C1=C(C)[C@H](O)[C@@H](C)[C@](C)(c2cc(OC)c(C)c(OC)c2COc2ccccc2)O1,inactive: -7.94%,
Cc1ccc(S(=O)(=O)c2nnn3c2nc(Nc2ccc(C(C)C)cc2)c2sccc23)cc1C,,active: 12.6 µM
Cc1cc(OCC(=O)Nc2cccc(S(=O)(=O)NC3=NCCCCC3)c2)ccc1Cl,,"inconclusive [activator, single point]"
CN(c1ccc(Cl)cc1)c1cc(=O)n(C)c2ccccc12,,"inconclusive [inhibitor, full curve, poor fit]"
Cc1ccccc1NC(=O)CC1c2ccccc2CC(C)(C)N1C (stereo not drawn),,"inconclusive [inhibitor, partial curve]"
Cn1nc(C(F)(F)F)c2cc(C(=O)Nc3ccc(Cl)cc3)sc21,,"inconclusive [inhibitor, single point]"
Cc1cccc(CS(=O)(=O)Cc2ccc(C(=O)NCc3ccc(Cl)cc3)o2)c1,inactive: -8.34%,
CCOc1ccc(N(CC(=O)Nc2cccc(F)c2)S(=O)(=O)c2c(C)noc2C)cc1,,"inconclusive [inhibitor, single point]"

SMILES,"activity, negative = inhibition",Potency
CCOc1ccc(CN2C(=O)c3ccccc3Sc3ccc(C(=O)NCc4ccc(C)cc4)cc32)cc1,,"inconclusive [inhibitor, single point]"
N/C(=N\OC(=O)c1ccc(Cl)cc1Cl)c1ccccn1,inactive: -0.885%,
COc1cccc(CSc2nc3n(n2)C(c2ccccc2C)C(C(=O)Nc2ccccc2OC)=C(C)N3)c1 (stereo not drawn),,"inconclusive [inhibitor, single point]"
Nc1cnccc1C(=O)O,,"inconclusive [inhibitor, single point]"
O=C(CSc1oc(-c2ccco2)nc1S(=O)(=O)c1ccc(Cl)cc1)c1ccccc1,,"inconclusive [inhibitor, partial curve]"
Cc1cc(C)c2c(c1)N[C@H](c1cccs1)[C@@H]1CCO[C@H]21,inactive: 0.911%,
Cc1cc(=O)[nH]c(N/N=C/c2c[nH]c3ccccc23)n1,inactive: 7.88%,
COc1ccccc1CNc1ncnc2ccc(-c3ccc(N(C)C)cc3)cc12,,"inconclusive [activator, full curve, poor fit]"
COc1ccc(N2C(=O)/C(=C/c3cccs3)NC2=S)cc1,,"inconclusive [inhibitor, single point]"
CCOC(=O)c1nc(Nc2cccc(C)c2)c2ccccc2n1,,"inconclusive [inhibitor, single point]"
Cc1sc2ncn(CC(=O)NCC3COc4ccccc4O3)c(=O)c2c1S(=O)(=O)N1CCCCC1 (stereo not drawn),,"inconclusive [inhibitor, single point]"
CCOC(=O)/C=c1\s/c(=C\c2ccc(C#N)cc2)c(=O)n1CC(=O)NCc1ccco1,,"inconclusive [inhibitor, partial curve, poor fit]"
Cc1cccc(NC(=O)c2c(Br)sc3c2CCCC3)c1,,"inconclusive [inhibitor, single point]"
COc1ccc(Nc2nnc(-c3ccc(C)c(S(=O)(=O)N4CCOCC4)c3)c3ccccc23)cc1,,"inconclusive [activator, partial curve, poor fit]"
O=C(NC(=S)Nc1ccc(CN2CCOCC2)cc1)c1ccc(-c2ccc(Br)cc2)o1,,"inconclusive [inhibitor, single point]"
Cc1ccc(-c2nnc(Nc3ccc4c(c3)nc(C)n4C)c3ccccc23)cc1,,"inconclusive [activator, partial curve, poor fit]"
Cc1cc(=O)[nH]c(SCC(=O)Nc2nc3ccccc3s2)n1,,"inconclusive [inhibitor, single point]"
CCc1cccc(NC(=O)CCS(=O)(=O)c2ccc(C)cc2)c1,,"inconclusive [inhibitor, single point]"
N#Cc1c(C#N)c(O)c2ccccc2c1O,,"inconclusive [inhibitor, partial curve]"
CCc1nnc(NC(=O)CN2CCN(c3cccc(OC)c3)CC2)s1,inactive: 4.23%,
Cc1cnc(NC(=O)CSc2ccc(Cl)cc2)s1,,"inconclusive [inhibitor, single point]"
O=S(=O)(Nc1nc2n(n1)C(c1ccccc1)C=C(c1ccc(Cl)cc1)N2)c1ccccc1 (stereo not drawn),,"inconclusive [inhibitor, partial curve]"
